{
  "source": "the supplement of paper PMC4604168 (melanoma cell lines)",
  "note": "This is one part of the list. Many values rest on one well or one pass, so single values are uncertain.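 Note: cells treated in 1,536-well plates, then fixed and DAPI-stained, with nuclei counted from automated high-throughput microscope images.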",
  "data": [
    {"system": "MZ2-MEL", "test": "cell count relative to DMSO control; melanoma cells; higher = more viable cells", "conditions": "library dose: standard library concentration; 72 h", "units": {"cell count": "%"}, "values": [
      {"smiles": "O=c1[nH]nc(Sc2ncc([N+](=O)[O-])s2)n1-c1ccc2c(c1)OCCO2", "note": "+ CC(C)C[C@H](NC(=O)[C@H](Cc1ccccc1)NC(=O)c1cnccn1)B(O)O [Bortezomib] (first compound 1 µM, partner dose 0.005 µM)", "cell count": 4.56},
      {"smiles": "O=c1[nH]nc(Sc2ncc([N+](=O)[O-])s2)n1-c1ccc2c(c1)OCCO2", "note": "+ CCc1ccc(CCOc2ccc(CC3SC(=O)NC3=O)cc2)nc1 [pioglitazone] (first compound 1 µM, partner dose 10 µM)", "cell count": 127},
      {"smiles": "C[C@@H]1CCN(C(=O)CC#N)C[C@@H]1N(C)c1ncnc2[nH]ccc12", "note": "+ COc1ccc(-c2ccc3c(N4CCOCC4)nc(N4C[C@@H](C)O[C@@H](C)C4)nc3n2)cc1CO [KU0063794] (first compound 5 µM, partner dose 0.1 µM)", "cell count": 78},
      {"smiles": "C[C@@H]1CCN(C(=O)CC#N)C[C@@H]1N(C)c1ncnc2[nH]ccc12", "note": "+ O=S(=O)(c1ccccc1)N(CC(F)(F)F)c1ccc(C(O)(C(F)(F)F)C(F)(F)F)cc1 [T0901317] (first compound 5 µM, partner dose 7 µM)", "cell count": 97.8}
    ]}
  ]
}
